Measured values as given in PubChem BioAssay AID488969 (Vanderbilt High Throughput Screening Facility, 2010).
In all, about 110,000 compounds were measured (“z-score”: median about -0.1, highest 2% from about 2 on). This is one part of the list. Calls of active or inactive are those of the source.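 The calls were made as follows: active = z-score in the third read window above 3 or below -3; inactive = the rest.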

Target: Metabotropic glutamate receptor 8 (Rattus norvegicus) (UniProt P70579)
Test: rat mGluR8 modulators via GIRK flux, primary screen, cell-based, thallium flux, HTS (AID 488969)
Details: HEK293 rat mGluR8, GIRK (G protein-gated inwardly rectifying potassium channel) thallium flux, FluoZin2; at 10 µM; stronger effect = higher value; submaximal glutamate (EC20) added with thallium

UniProt P70579, sequence (P70579 whole entry, looked up): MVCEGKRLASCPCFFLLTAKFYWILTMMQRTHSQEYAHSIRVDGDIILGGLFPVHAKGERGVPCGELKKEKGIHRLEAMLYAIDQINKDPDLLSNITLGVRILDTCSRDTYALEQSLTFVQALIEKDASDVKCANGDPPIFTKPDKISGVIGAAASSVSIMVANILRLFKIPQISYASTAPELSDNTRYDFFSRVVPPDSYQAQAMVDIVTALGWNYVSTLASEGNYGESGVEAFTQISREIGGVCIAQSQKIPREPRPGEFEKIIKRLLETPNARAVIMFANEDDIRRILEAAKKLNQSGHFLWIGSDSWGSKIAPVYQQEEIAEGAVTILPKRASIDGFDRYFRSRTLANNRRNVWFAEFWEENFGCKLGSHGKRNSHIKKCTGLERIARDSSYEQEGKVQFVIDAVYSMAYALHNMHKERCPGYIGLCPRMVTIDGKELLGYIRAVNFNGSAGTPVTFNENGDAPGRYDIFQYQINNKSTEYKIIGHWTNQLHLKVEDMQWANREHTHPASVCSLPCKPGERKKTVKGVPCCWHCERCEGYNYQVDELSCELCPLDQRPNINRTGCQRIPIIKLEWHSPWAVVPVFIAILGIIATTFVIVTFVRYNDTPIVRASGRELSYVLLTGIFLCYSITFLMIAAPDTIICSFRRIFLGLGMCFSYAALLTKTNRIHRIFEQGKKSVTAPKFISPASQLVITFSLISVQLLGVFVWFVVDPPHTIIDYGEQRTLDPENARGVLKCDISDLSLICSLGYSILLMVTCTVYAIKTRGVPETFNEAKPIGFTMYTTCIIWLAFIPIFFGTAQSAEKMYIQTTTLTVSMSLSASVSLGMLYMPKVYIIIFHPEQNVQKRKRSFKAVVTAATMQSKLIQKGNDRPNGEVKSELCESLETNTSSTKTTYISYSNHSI

Point of comparison: `O=C(Cn1nnc(-c2ccccc2F)n1)NCCc1ccccc1`, z-score -0.146. Against it:
- O=C1C(C2=NC(C(=O)O)C3C(=O)N(c4ccc(Cl)cc4)C(=O)C23)=C(O)c2ccccc21 (stereo not given) — higher, 0.452
- O=S(=O)(c1ccccc1Cl)N1CCCC1c1nc(-c2ccc(Cl)cc2)no1 (stereo not given) — higher, 0.14
- CCC(Oc1ccccc1)C(=O)N1CC(C)CC(C)C1 (stereo not given) — higher, -0.11
- O=C(Cc1cccc2ccccc12)NNC(=O)Nc1cccc(Cl)c1 — lower, -0.184
- COc1ccc(CC(=O)NNS(=O)(=O)c2ccc3ccccc3c2)cc1OC — higher, 0.00396
- Cc1ccc2c([N+](=O)[O-])cccc2n1 — higher, -0.0936
- Cc1c(C#N)c(N)c(C(=O)c2ccccc2)n1Cc1ccccc1 — lower, -1.22
- O=C(N/N=C\C=C\c1ccco1)c1cc(-c2ccc3ccccc3c2)n[nH]1 — lower, -0.343
- CCn1c(SCC(=O)c2ccc(OC)cc2)nnc1C(C)NC(=O)c1ccc(OC)cc1 (stereo not given) — higher, 0.438
- COc1cc2c(cc1NC(=O)CSc1nc3ccc(C)cc3[nH]1)oc1ccccc12 — lower, -0.547
- Cn1c(SCC(=O)N2CCN(c3ccccc3)CC2)nnc1-c1ccncc1 — higher, 0.0808
- CC1(C)C(=O)OC(c2c(F)c(F)c(F)c(F)c2F)C2(CCCCC2)C1=O (stereo not given) — higher, 0.58
- Cc1nnc(C)n1/N=C/c1cccs1 — lower, -0.34
- COC(=O)c1sccc1NC(=S)Nc1cc(C)cc(C)c1 — higher, 0.0724
- CS/C(=C\[N+](=O)[O-])Nc1ccc(Cl)cc1 — higher, 0.484
- CCc1c(C)sc(NC(=O)Cn2nc(C(F)(F)F)c3c2CCCC3)c1C#N — higher, 0.0133
- O=C(CSc1nc2c(sc3ccccc32)c(=O)n1CCO)NCc1ccco1 — higher, 0.191
- O=S(=O)(N/N=C/c1ccc(Cl)cc1)c1ccc(Cc2ncc(C(F)(F)F)cc2Cl)s1 — lower, -0.511
- O=C(NCc1ccc(Cl)cc1)c1cccnc1 — higher, 0.686
- O=C(O)C1C2C=CC(C3CC23)C1C(=O)N1CCc2ccccc21 (stereo not given) — lower, -2.23
- Cc1nnc(NC(=O)CSc2nnc(Cc3cccn3C)n2CCc2ccccc2)s1 — lower, -0.602
- CN(C)/C=N/c1sc2c(c1C#N)CC(C)(C)NC2(C)C — lower, -0.745
- CCN(c1ccccc1)S(=O)(=O)c1cc(C(=O)Nc2ccccc2Cl)ccc1F — higher, 2.19
- O=C1CSC(c2cccc(F)c2)N1c1ccccc1F (stereo not given) — higher, 0.00531
- COc1ccc(/C=N/NC(=O)Cc2cc(OC)c(OC)cc2[N+](=O)[O-])cc1 — lower, -0.604
- CS(=O)(=O)c1ccc2nc(NC(=O)c3cccc(NS(=O)(=O)c4ccc(F)c(F)c4)c3)sc2c1 — higher, 0.695
- CCOC(=O)C1CCN(C(=S)Nc2cc(OC)c(OC)cc2C(=O)OC)CC1 — higher, -0.0735
- O=C(Cc1ccc(S(=O)(=O)N2CCOCC2)s1)Nc1nc2c(s1)CCCC2 — higher, 0.2
- CCn1c(SCc2nc(-c3ccccc3)no2)nnc1-c1ccco1 — lower, -0.421
- CCOC(=O)Cn1c(S(=O)(=O)Cc2ccccc2Cl)nc(-c2ccccc2)c1-c1ccccc1 — lower, -0.734
- C=CCNC(=O)NC(=O)COC(=O)c1cccnc1SC — higher, 0.108
- O=C(CCS(=O)(=O)c1ccc(Br)cc1)Nc1ccccn1 — higher, 0.171
- O=C(NC(=S)N1CCCCC1)c1cccs1 — higher, 0.578
- NC(=S)NNC(=O)Nc1ccc(Cl)c(Cl)c1 — higher, 0.243
- O=C(c1ccc(Cl)cc1)[C@@H]1[C@@H]2C(=O)N(c3ccc(Cl)cc3)C(=O)[C@@H]2C2c3ccccc3C=NN21 (stereo not given in full) — higher, 0.263
- COC(=O)c1cc(Cl)c(NC(=O)/C=C/c2ccc(Cl)cc2)cc1OC — higher, -0.0302
- O=C(O)c1ccc(Sc2nnc(-c3cccc(Br)c3)o2)c([N+](=O)[O-])c1 — lower, -1.27
- O=C(Cn1nnc2ccccc21)OCC(=O)c1ccc(Cl)c(Cl)c1 — lower, -0.201
- COc1ccc(CCNC(=O)CN(C)S(=O)(=O)c2cccc3nsnc23)cc1OC — lower, -0.171
- CCNC(=S)NNC(=O)c1csc2c1CCC(C)C2 (stereo not given) — higher, 0.0328
- COc1ccc(/C=N/NC(=O)C(=O)Nc2ccccn2)cc1OC — higher, 0.813
- Cc1nnc(SCC(=O)Nc2ccc3c(c2)OCO3)o1 — higher, -0.0329
- Cc1cc(Br)ccc1NC(=O)c1ccccc1-c1ccccc1 — higher, -0.0334
- COc1ccc(-c2cc(C(F)(F)F)nc(N3CCCCCC3)n2)cc1 — higher, 0.144
- O=c1c2ccccc2n2c(-c3cccc(Cl)c3)nnc2n1Cc1ccccc1 — higher, 1.45
- COc1cccc(-n2c(Cc3cc(=O)[nH]c(=O)[nH]3)nnc2SCC(=O)N2CCCC2)c1 — lower, -0.354
- Cn1c(=O)[nH]c(=O)c2c1nc(N1CCCCCC1)n2CCSc1nc2ccccc2[nH]1 — lower, -0.571
- COc1ccc(-c2nnc(CSc3nc4ccccc4c(=O)n3CC(C)C)o2)cc1OC — lower, -0.54
- Cc1ccc(S(=O)(=O)N(CC(O)CN(C)C)c2ccccc2)cc1 (stereo not given) — higher, 0.219
- Cc1ccc(S(=O)(=O)NCCSCc2ccccc2)cc1 — lower, -0.24
- COC(=O)c1ccc2c(=O)n(NC(C)=O)c(=S)[nH]c2c1 — lower, -0.28
- O=C(N/N=C/c1cccc(OCc2ccccc2)c1)c1cccs1 — higher, -0.0806
- Cc1ccc(C)c(NS(=O)(=O)c2cc(C(=O)NCCC3=CCCCC3)ccc2C)c1 — higher, 0.0312
- O=C(NCCN1CCN(c2ccccc2F)CC1)c1cccn2c(=O)c3ccccc3nc12 — lower, -0.425
- N#Cc1nc(-c2ccccc2)oc1NCCN1CCCCC1 — higher, 1.23
- O=[N+]([O-])c1cc(S(=O)(=O)N2CCCC2)ccc1N/N=C/c1cccnc1 — lower, -0.195
- CCn1c(C)csc1=NC(=O)c1ccccc1 — higher, 0.492
- CC(C)n1nc(C(=O)Nc2nnc(SCc3c(Cl)cccc3Cl)s2)c2ccccc2c1=O — lower, -0.401
- Nc1nnc(-c2ccco2)s1 — higher, 0.345
- Cn1c(=O)c2c(nc(Br)n2CC(=O)c2cccs2)n(C)c1=O — higher, -0.0755
- COc1ccccc1-n1c(C)nnc1SCC(=O)NCc1ccccc1 — lower, -0.334
- CN1CCN(c2ccc([N+](=O)[O-])cc2C(=O)c2ccccc2)CC1 — lower, -0.393
- CCOC(=O)C1=C(C)N=C2c3ccccc3C(=O)C2C1c1ccccc1 (stereo not given) — higher, -0.101
- COCCOC(=O)c1c(C)n(C)c2ccc(OC(=O)c3ccco3)cc12 — lower, -0.203
- Cc1ccc(/C=C/C(=O)Nc2cc(C)on2)cc1 — higher, 0.522
- O=C(CCN1C(=O)c2ccccc2C1=O)OCn1nnc2ccccc2c1=O — lower, -0.177
- CC(C)CNC(=O)c1cc([N+](=O)[O-])ccc1N1CCCCC1 — higher, 0.455
- COC(=O)c1cn(-c2ccccc2)nc1-c1ccncc1 — lower, -0.152
- COc1ccc(NC(=O)[C@H](COCc2ccccc2)NC(=O)OC(C)(C)C)cc1 — higher, 0.329
- O=C(CSc1nccn1-c1ccccc1)c1ccc(Br)cc1 — lower, -0.2
- CCOC(=O)c1csc(NC(=O)c2ccc(OC)c(OC)c2)n1 — higher, 0.186
- O=C(c1cccs1)N(Cc1ccco1)c1nc(-c2ccc(F)cc2)cs1 — lower, -0.619
- COCc1nnc(NC(=O)CC(C)C)s1 — higher, 0.0678
- CCOc1ccc(N(CC(=O)Nc2ccc(OC)cc2)S(C)(=O)=O)cc1 — higher, 0.896
- O=C(C(Sc1ccccc1)c1ccc(Br)cc1)N1CCOCC1 (stereo not given) — higher, -0.0285
- Cc1cc2cc3c(cc2nc1SCC(=O)Nc1c(C)cccc1C)CCC3 — higher, -0.104
- COc1ccccc1NS(=O)(=O)c1cc([N+](=O)[O-])ccc1N/N=C/c1sc(N2CCOCC2)nc1-c1ccccc1 — lower, -0.289
- CCOc1cccc(C(=O)NC(=S)Nc2ccccc2)c1 — higher, 1.97
- CCOC(=O)CNC(=O)CN1C(=O)CCS(=O)(=O)c2ccccc21 — higher, 0.54
- CC(=O)N1CCc2cc(S(=O)(=O)CCC(=O)O)ccc21 — higher, 0.536
- Cc1ccc2oc(-c3ccc(NC(=O)c4cccnc4)cc3)nc2c1 — lower, -0.38
- COCCNC(=O)COc1cccc(Oc2ccccc2)c1 — lower, -0.445
- CCCC1=C(C(=O)OCC)C(c2ccccc2OC)NC(=O)N1 (stereo not given) — higher, -0.0802
- COc1ccc2[nH]c(=O)c(C(c3nnnn3C3CCCC3)N3CCN(Cc4ccc5c(c4)OCO5)CC3)cc2c1 (stereo not given) — lower, -0.401
- COc1ccc(CCNC(=O)c2ccc(CN3CCC(Cc4ccccc4)CC3)cc2)cc1 — lower, -0.304
- Cn1cnc2c1c(=O)n(Cc1ccc(F)cc1Cl)c(=O)n2C — lower, -0.412
- CCc1ccccc1N(CC(=O)NCCSCc1ccco1)S(C)(=O)=O — higher, 0.26
- COC(=O)c1ccccc1Sc1c(/C=N/OC(=O)c2ccccc2)c(C(F)(F)F)nn1C — higher, 0.737
- COc1ccc(-c2ccnc(SCC(=O)Nc3ccccn3)n2)cc1 — lower, -0.886
- CCOC(=O)c1c(C)n(C)c2cc(-c3ccc(C)cc3)c(O)cc12 — higher, -0.14
- COc1cccc(-n2nnc3c(=O)n(CC(=O)N4CCC(C)CC4)cnc32)c1 — higher, 0.0581
- Cc1nc(Nc2ccc3c(c2)OCCO3)c2oc3ccccc3c2n1 — lower, -0.339
- CC/C(=N/N=C(\CC)c1ccccc1)c1ccccc1 — higher, -0.0677
- O=C(OCC(=O)N1CCCc2ccccc21)c1cncc(Br)c1 — higher, -0.0721
- Cc1ccc(Nc2c3c(nc4ncnn24)CC(C)CC3)cc1 (stereo not given) — lower, -0.481
- C/C(=N\Nc1ccc(F)cc1)c1ccncc1 — lower, -0.156
- O=C(Nc1ccc(CN2CCOCC2)cc1)c1cccc(F)c1 — higher, 0.0821
- CCOC(=O)N1CCN(S(=O)(=O)c2cc(Br)cnc2N)CC1 — higher, 0.404
- COc1ccc(C2=Nn3c(nnc3-c3ccncc3)SC2)cc1OC — higher, -0.0218
- COc1cccc2c1OCC1COc3c(c(=O)n(C)c(=O)n3C)C21 (stereo not given) — higher, -0.00656
- O=S(=O)(Cc1ccccc1Cl)CC(O)COc1ccccc1Cl (stereo not given) — lower, -0.273
- CCN(CC)S(=O)(=O)c1ccc(N2CCOCC2)c(NS(=O)(=O)c2cc(C(C)(C)C)ccc2C)c1 — higher, -0.103
- Cc1ccc(SCC2=NNC(=O)C2)cc1 — lower, -0.291
- O=C(CSc1nnc2scc(-c3ccccc3)n12)N1CCN(Cc2ccccc2)CC1 — lower, -0.819
- COCCNC(=S)Nc1ccc2nsnc2c1 — higher, -0.103
- CCOCCCNC(=O)CCCOc1ccccc1 — higher, 0.0157
- O=C1C2C3c4ccccc4C(c4ccccc43)C2c2nc3ccccc3n21 (stereo not given) — higher, -0.0943
- CCS(=O)(=O)N1CCCC(C(=O)NCCN2CCC(Cc3ccccc3)CC2)C1 (stereo not given) — lower, -0.302

With `C=CCNC(=S)NNC(=O)COc1ccc(Cl)cc1Cl` the z-score was active: 6.1.
